Test results from the supplement of paper PMC7826260.
The other results are listed elsewhere or left out. Viral Rep nickase domains cut single-stranded DNA in vitro at 3 µM enzyme and 37 °C for 1 h; the strands have 90 letters, of which the middle is given. Uncut reads are compared with the no-enzyme pool on a log2 scale; the lower, the more was cut; hits are not called. Because reads are shares of a total, they shift together; values above 0 arise when much of the pool is cut.

Key:
Test in all cases: uncleaved DNA left, log2 of reads against the no-enzyme library (log2 ratio); higher = less cleavage (more negative = more Rep cleavage of the k-mer); sequences stand for … in CTCGTCCG…ACCGGAGA
[1] = system: T1, Rep nickase domain of Muscovy duck circovirus
T1 sequence (residues 1-111 of Rep, tag left off): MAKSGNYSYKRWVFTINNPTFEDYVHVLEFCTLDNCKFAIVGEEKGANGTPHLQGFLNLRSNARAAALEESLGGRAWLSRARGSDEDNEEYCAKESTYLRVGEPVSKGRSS
Method: (§1)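 A pool of 90-nt single-stranded DNAs with seven random bases just before the constant AC of the nick site (name = the seven bases) was cut by 3 µM recombinant His6-SUMO-tagged Rep nickase domain (300 nM DNA, 50 mM HEPES pH 8.0, 50 mM NaCl, 1 mM MnCl2, 1 h, 37 °C, three replicates). Uncut DNA was amplified and sequenced.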

[2] = system: T2, Rep nickase domain of banana bunchy top virus
T2 sequence (residues 1-94 of Rep, tag left off): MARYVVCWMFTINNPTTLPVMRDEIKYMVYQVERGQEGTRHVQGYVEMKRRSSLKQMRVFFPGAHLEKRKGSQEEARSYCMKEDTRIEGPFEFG
Method: as §1

[3] = system: T3, Rep nickase domain of cabbage leaf curl virus
T3 sequence (residues 1-116 of Rep, tag left off): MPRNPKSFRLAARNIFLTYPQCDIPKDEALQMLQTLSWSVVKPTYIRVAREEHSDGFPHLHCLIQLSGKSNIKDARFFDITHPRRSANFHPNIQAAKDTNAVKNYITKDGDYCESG
Method: as §1

[4] = system: T4, Rep nickase domain of chickpea chlorotic dwarf virus
T4 sequence (residues 1-124 of Rep, tag left off): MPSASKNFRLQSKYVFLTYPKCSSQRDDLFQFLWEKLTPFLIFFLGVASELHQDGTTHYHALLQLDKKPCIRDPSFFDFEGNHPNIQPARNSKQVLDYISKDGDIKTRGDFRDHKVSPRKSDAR
Method: as §1

[5] = system: T5, Rep nickase domain of faba bean necrotic yellows virus
T5 sequence (residues 1-98 of Rep, tag left off): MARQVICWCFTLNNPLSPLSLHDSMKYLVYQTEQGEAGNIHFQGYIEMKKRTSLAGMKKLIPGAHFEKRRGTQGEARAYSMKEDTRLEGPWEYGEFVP
Method: as §1

[6] = system: T6, Rep nickase domain of maize striate mosaic virus
T6 sequence (residues 1-117 of Rep, tag left off): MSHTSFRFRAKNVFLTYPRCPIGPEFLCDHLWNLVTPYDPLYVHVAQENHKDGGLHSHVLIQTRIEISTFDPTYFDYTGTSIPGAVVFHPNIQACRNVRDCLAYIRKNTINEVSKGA
Method: as §1

[7] = system: T7, Rep nickase domain of porcine circovirus 2
T7 sequence (residues 2-116 of Rep, tag left off): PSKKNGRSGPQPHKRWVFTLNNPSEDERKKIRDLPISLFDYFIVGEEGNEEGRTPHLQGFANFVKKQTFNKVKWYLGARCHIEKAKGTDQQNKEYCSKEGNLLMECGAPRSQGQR
Method: as §1

[8] = system: T8, Rep nickase domain of tomato golden mosaic virus
T8 sequence (residues 1-124 of Rep, tag left off): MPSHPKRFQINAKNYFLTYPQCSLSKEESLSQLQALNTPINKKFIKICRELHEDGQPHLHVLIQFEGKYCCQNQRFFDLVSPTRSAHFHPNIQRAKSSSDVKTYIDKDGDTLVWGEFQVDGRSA
Method: as §1

[9] = system: T9, Rep nickase domain of tomato yellow leaf curl virus
T9 sequence (residues 1-136 of Rep, tag left off): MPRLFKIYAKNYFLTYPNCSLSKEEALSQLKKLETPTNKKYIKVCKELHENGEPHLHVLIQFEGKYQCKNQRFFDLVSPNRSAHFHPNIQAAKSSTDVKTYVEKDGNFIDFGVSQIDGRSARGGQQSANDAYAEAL
Method: as §1

[10] = system: T10, Rep nickase domain of wheat dwarf virus
T10 sequence (residues 1-137 of Rep, tag left off): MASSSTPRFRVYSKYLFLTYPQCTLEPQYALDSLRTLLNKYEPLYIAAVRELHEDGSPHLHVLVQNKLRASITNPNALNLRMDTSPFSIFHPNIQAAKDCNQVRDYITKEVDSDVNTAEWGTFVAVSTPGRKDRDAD
Method: as §1

| Sequence | uncleaved DNA left (log2) [1] | uncleaved DNA left (log2) [2] | uncleaved DNA left (log2) [3] | uncleaved DNA left (log2) [4] | uncleaved DNA left (log2) [5] | uncleaved DNA left (log2) [6] | uncleaved DNA left (log2) [7] | uncleaved DNA left (log2) [8] | uncleaved DNA left (log2) [9] | uncleaved DNA left (log2) [10] |
| --- | --- | --- | --- | --- | --- | --- | --- | --- | --- | --- |
| GATATAG | 0.13 | 0.0672 | -0.592 | -0.448 | 0.0346 | -1.06 | 0.107 | 0.0224 | 0.15 | 0.000216 |
| TAGCCCT | -0.0362 | 0.0188 | -0.7 | -2.48 | -0.0424 | 0.408 | -3.57 | -0.092 | 0.0259 | 0.0238 |
| GTGCATA | 0.0762 | 0.203 | 0.364 | 1.02 | 0.159 | 1.73 | 0.0126 | 0.123 | 0.169 | 0.188 |
| TGATCCC | 0.0667 | 0.137 | 0.47 | 0.651 | 0.112 | 0.891 | 0.0666 | 0.0513 | 0.0731 | 0.167 |
| CAGACGC | 0.0104 | 0.0229 | 0.0268 | -0.0207 | 0.00767 | -0.719 | 0.136 | -0.0785 | 0.0818 | -0.0209 |
| TACCTAG | 0.123 | 0.0885 | -0.841 | -1.05 | 0.216 | -1.01 | -0.512 | 0.061 | 0.11 | 0.149 |
| AAATCAG | 0.000518 | 0.0347 | -0.731 | -0.192 | -0.00386 | -1.17 | 0.244 | 0.0485 | 0.0699 | 0.0105 |
| AAGCAAC | 0.143 | 0.0631 | 0.0796 | -0.751 | 0.117 | -0.197 | 0.066 | 0.132 | 0.0827 | 0.102 |
| GCGAAAA | 0.0143 | 0.0629 | 0.168 | 0.483 | 0.169 | 0.165 | 0.149 | -0.00242 | 0.132 | 0.149 |
| TGCCACG | 0.139 | -0.0157 | -0.595 | -0.702 | 0.116 | -0.941 | 0.204 | -0.131 | -0.00599 | -0.0365 |
| CATGTCC | -0.0192 | -0.175 | -0.2 | -0.673 | -0.133 | -0.915 | -0.19 | -0.207 | -0.143 | -0.25 |
| GCTCCGG | 0.0108 | 0.0275 | 0.509 | 1.36 | 0.0089 | 1.7 | 0.158 | 0.143 | 0.0301 | -0.0239 |
| CTACATG | 0.0153 | -0.0406 | -0.806 | -1.07 | -0.0941 | -1.14 | 0.0259 | -0.0469 | -0.13 | -0.195 |
| CTGGCCC | 0.255 | 0.165 | 0.161 | 0.182 | -0.0499 | 0.383 | 0.0439 | 0.0548 | 0.125 | 0.121 |
| TAAAGGT | 0.0821 | 0.0177 | -2.43 | -2.19 | 0.073 | 1.31 | 0.0402 | -0.139 | -0.0986 | -0.59 |
| TATGGAG | 0.154 | 0.0666 | -0.612 | -0.406 | 0.283 | -0.94 | 0.264 | 0.165 | 0.154 | -0.0519 |
| GGGTGCT | 0.114 | -0.0042 | 0.801 | 1.63 | -0.0468 | 2.08 | -1.52 | -0.0644 | 0.0131 | 0.0731 |
| TACACTT | -0.552 | -1.69 | -2.7 | -2.79 | 0.0036 | -0.702 | -3.18 | -0.332 | -0.0421 | -0.655 |
| GAGAACA | 0.0389 | 0.0482 | 0.455 | 0.0833 | 0.0246 | 1.61 | -0.0757 | 0.0282 | 0.0755 | 0.142 |
| TTATAAG | 0.113 | 0.0295 | -0.711 | -0.317 | 0.108 | -1.12 | 0.261 | 0.0581 | 0.0923 | 0.0481 |
| AATTGGA | -0.146 | -0.0579 | -0.182 | -0.378 | 0.0753 | -0.982 | -0.606 | 0.0625 | 0.0189 | 0.0492 |
| AATCTCC | -0.0214 | -0.0116 | -0.196 | -0.152 | -0.078 | 1.64 | 0.0641 | -0.0748 | -0.0319 | 0.0965 |
| ATCTTGT | -0.0996 | -0.0919 | -0.472 | -0.639 | 0.0195 | -1.07 | -1.12 | -0.086 | -0.0486 | 0.0276 |
| TGCGGCC | -0.0141 | -0.0604 | -0.00319 | 0.00703 | -0.059 | -0.502 | 0.0628 | -0.0518 | -0.0346 | -0.0833 |
| TGATTAA | 0.162 | 0.0984 | 0.113 | -0.0067 | 0.214 | -0.000864 | 0.0403 | 0.0107 | 0.0962 | 0.103 |
| CGCTTAT | 0.00982 | 0.0801 | 0.31 | -0.381 | 0.309 | -0.11 | -0.982 | 0.164 | 0.11 | 0.305 |
| AGTGCGG | 0.177 | 0.0484 | -0.0139 | 0.238 | 0.0547 | 0.378 | 0.225 | 0.0814 | 0.0427 | 0.0766 |
| AACTTCG | 0.0345 | 0.0286 | -0.908 | -0.138 | 0.0794 | -1.11 | 0.108 | 0.0524 | 0.0928 | -0.0113 |
| ACTGTTG | 0.0169 | 0.0136 | -0.532 | -0.334 | -0.00307 | -1.14 | 0.0877 | -0.0902 | 0.0545 | -0.103 |
| TGGCATG | 0.0346 | -0.0723 | 0.12 | 0.652 | -0.0702 | 0.478 | -0.0422 | -0.0583 | -0.171 | 0.13 |
